# Measurements published in the supplement of paper PMC8728848.
# Some of the results follow.
# Tests used:
# Test in all cases: glycan array binding signal (z-score within array); higher = stronger binding
# Settings in all cases: glycan notation: IUPAC condensed, linker removed
# [1] = target: Neu5Ac(a2-3)Gal(b1-4)GlcNAc(b1-6)GalNAc
# Summary of the method: (§1)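 Columns mapping to the same glycan were averaged after glycan names were converted to IUPAC-condensed notation. The data come from 3228 arrays in the Consortium for Functional Glycomics database, limited to those with an available protein sequence. Binding is reported as a within-array Z-score averaged across arrays of one protein sequence and across linkers.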
# [2] = target: Neu5Ac(a2-3)Gal(b1-4)GlcNAc(b1-6)[Gal(b1-3)]GalNAc
# Summary of the method: as §1
# [3] = target: Neu5Ac(a2-3)Gal(b1-4)GlcNAc(b1-6)[Neu5Ac(a2-3)Gal(b1-3)]GalNAc
# Summary of the method: as §1
# [4] = target: Neu5Ac(a2-3)Gal(b1-4)GlcNAc6S
# Summary of the method: as §1
# [5] = target: Neu5Ac(a2-3)Gal(b1-4)[Fuc(a1-3)]GlcNAc
# Summary of the method: as §1
# [6] = target: Neu5Ac(a2-3)Gal(b1-4)[Fuc(a1-3)]GlcNAc(b1-2)Man
# Summary of the method: as §1
# [7] = target: Neu5Ac(a2-3)Gal(b1-4)[Fuc(a1-3)]GlcNAc(b1-3)Gal
# Summary of the method: as §1
# [8] = target: Neu5Ac(a2-3)Gal(b1-4)[Fuc(a1-3)]GlcNAc(b1-3)Gal(b1-4)GlcNAc
# Summary of the method: as §1
# [9] = target: Neu5Ac(a2-3)Gal(b1-4)[Fuc(a1-3)]GlcNAc(b1-3)Gal(b1-4)[Fuc(a1-3)]GlcNAc(b1-3)Gal(b1-4)[Fuc(a1-3)]GlcNAc
# Summary of the method: as §1
# [10] = target: Neu5Ac(a2-3)Gal(b1-4)[Fuc(a1-3)]GlcNAc(b1-3)GalNAc
# Summary of the method: as §1
# [11] = target: Neu5Ac(a2-3)Gal(b1-4)[Fuc(a1-3)]GlcNAc(b1-6)[Gal(b1-3)]GalNAc
# Summary of the method: as §1
# [12] = target: Neu5Ac(a2-3)Gal(b1-4)[Fuc(a1-3)]GlcNAc(b1-6)[Neu5Ac(a2-3)Gal(b1-3)]GalNAc
# Summary of the method: as §1
# [13] = target: Neu5Ac(a2-3)Gal(b1-4)[Fuc(a1-3)]GlcNAc6S
# Summary of the method: as §1
# [14] = target: Neu5Ac(a2-3)Gal6S(b1-4)GlcNAc
# Summary of the method: as §1
# [15] = target: Neu5Ac(a2-3)Gal6S(b1-4)[Fuc(a1-3)]GlcNAc
# Summary of the method: as §1
# Neu5Ac(a2-3)GalNAc = target: Neu5Ac(a2-3)GalNAc
# Summary of the method: as §1
# [16] = target: Neu5Ac(a2-3)GalNAc(b1-4)GlcNAc
# Summary of the method: as §1
# [17] = target: Neu5Ac(a2-3)[GalNAc(b1-4)]Gal(b1-4)Glc
# Summary of the method: as §1
# [18] = target: Neu5Ac(a2-3)[GalNAc(b1-4)]Gal(b1-4)GlcNAc
# Summary of the method: as §1
# [19] = target: Neu5Ac(a2-3)[GalNAc(b1-4)]Gal(b1-4)GlcNAc(b1-3)GalNAc
# Summary of the method: as §1
# [20] = target: Neu5Ac(a2-3)[Neu5Ac(a2-6)]GalNAc
# Summary of the method: as §1
# Neu5Ac(a2-6)Gal = target: Neu5Ac(a2-6)Gal
# Summary of the method: as §1
# [21] = target: Neu5Ac(a2-6)Gal(b1-3)GlcNAc(b1-3)[Gal(b1-4)GlcNAc(b1-6)]Gal(b1-4)Glc
# Summary of the method: as §1
# Neu5Ac(a2-6)Gal(b1-4)Glc = target: Neu5Ac(a2-6)Gal(b1-4)Glc
# Summary of the method: as §1
# [22] = target: Neu5Ac(a2-6)Gal(b1-4)GlcNAc
# Summary of the method: as §1
# [23] = target: Neu5Ac(a2-6)Gal(b1-4)GlcNAc(b1-2)Man
# Summary of the method: as §1
# [24] = target: Neu5Ac(a2-6)Gal(b1-4)GlcNAc(b1-2)Man(a1-3)Man(b1-4)GlcNAc(b1-4)GlcNAc
# Summary of the method: as §1
# [25] = target: Neu5Ac(a2-6)Gal(b1-4)GlcNAc(b1-2)Man(a1-3)[Gal(b1-4)GlcNAc(b1-2)Man(a1-6)]Man(b1-4)GlcNAc(b1-4)GlcNAc
# Summary of the method: as §1
# [26] = target: Neu5Ac(a2-6)Gal(b1-4)GlcNAc(b1-2)Man(a1-3)[GlcNAc(b1-2)Man(a1-6)]Man(b1-4)GlcNAc(b1-4)GlcNAc
# Summary of the method: as §1
# [27] = target: Neu5Ac(a2-6)Gal(b1-4)GlcNAc(b1-2)Man(a1-3)[GlcNAc(b1-4)][Neu5Ac(a2-6)Gal(b1-4)GlcNAc(b1-2)Man(a1-6)]Man(b1-4)GlcNAc(b1-4)GlcNAc
# Summary of the method: as §1
# [28] = target: Neu5Ac(a2-6)Gal(b1-4)GlcNAc(b1-2)Man(a1-3)[Man(a1-6)]Man(b1-4)GlcNAc(b1-4)GlcNAc
# Summary of the method: as §1
# [29] = target: Neu5Ac(a2-6)Gal(b1-4)GlcNAc(b1-2)Man(a1-3)[Neu5Ac(a2-3)Gal(b1-4)GlcNAc(b1-2)Man(a1-6)]Man(b1-4)GlcNAc(b1-4)GlcNAc
# Summary of the method: as §1
# [30] = target: Neu5Ac(a2-6)Gal(b1-4)GlcNAc(b1-2)Man(a1-3)[Neu5Ac(a2-6)Gal(b1-4)GlcNAc(b1-2)Man(a1-6)]Man(b1-4)GlcNAc(b1-4)GlcNAc
# Summary of the method: as §1
# [31] = target: Neu5Ac(a2-6)Gal(b1-4)GlcNAc(b1-2)Man(a1-3)[Neu5Ac(a2-6)Gal(b1-4)GlcNAc(b1-2)Man(a1-6)]Man(b1-4)GlcNAc(b1-4)[Fuc(a1-6)]GlcNAc
# Summary of the method: as §1
# [32] = target: Neu5Ac(a2-6)Gal(b1-4)GlcNAc(b1-2)Man(a1-6)Man(b1-4)GlcNAc(b1-4)GlcNAc
# Summary of the method: as §1
# [33] = target: Neu5Ac(a2-6)Gal(b1-4)GlcNAc(b1-2)Man(a1-6)[Gal(b1-4)GlcNAc(b1-2)Man(a1-3)]Man(b1-4)GlcNAc(b1-4)GlcNAc
# Summary of the method: as §1
# [34] = target: Neu5Ac(a2-6)Gal(b1-4)GlcNAc(b1-2)Man(a1-6)[GlcNAc(b1-2)Man(a1-3)]Man(b1-4)GlcNAc(b1-4)GlcNAc
# Summary of the method: as §1
# [35] = target: Neu5Ac(a2-6)Gal(b1-4)GlcNAc(b1-2)Man(a1-6)[Man(a1-3)]Man(b1-4)GlcNAc(b1-4)GlcNAc
# Summary of the method: as §1
# [36] = target: Neu5Ac(a2-6)Gal(b1-4)GlcNAc(b1-2)[Neu5Ac(a2-6)Gal(b1-4)GlcNAc(b1-4)]Man(a1-3)[GlcNAc(b1-4)][Neu5Ac(a2-6)Gal(b1-4)GlcNAc(b1-2)[Neu5Ac(a2-6)Gal(b1-4)GlcNAc(b1-6)]Man(a1-6)]Man(b1-4)GlcNAc(b1-4)GlcNAc
# Summary of the method: as §1
# [37] = target: Neu5Ac(a2-6)Gal(b1-4)GlcNAc(b1-2)[Neu5Ac(a2-6)Gal(b1-4)GlcNAc(b1-4)]Man(a1-3)[GlcNAc(b1-4)][Neu5Ac(a2-6)Gal(b1-4)GlcNAc(b1-4)Man(a1-6)]Man(b1-4)GlcNAc(b1-4)GlcNAc
# Summary of the method: as §1
# [38] = target: Neu5Ac(a2-6)Gal(b1-4)GlcNAc(b1-2)[Neu5Ac(a2-6)Gal(b1-4)GlcNAc(b1-6)]Man(a1-6)[Neu5Ac(a2-6)Gal(b1-4)GlcNAc(b1-2)Man(a1-3)][GlcNAc(b1-4)]Man(b1-4)GlcNAc(b1-4)GlcNAc
# Summary of the method: as §1
# [39] = target: Neu5Ac(a2-6)Gal(b1-4)GlcNAc(b1-3)Gal(b1-3)GlcNAc
# Summary of the method: as §1
# [40] = target: Neu5Ac(a2-6)Gal(b1-4)GlcNAc(b1-3)Gal(b1-4)GlcNAc
# Summary of the method: as §1
# [41] = target: Neu5Ac(a2-6)Gal(b1-4)GlcNAc(b1-3)Gal(b1-4)GlcNAc(b1-2)Man(a1-3)[Neu5Ac(a2-6)Gal(b1-4)GlcNAc(b1-3)Gal(b1-4)GlcNAc(b1-2)Man(a1-6)]GalNAc
# Summary of the method: as §1
# [42] = target: Neu5Ac(a2-6)Gal(b1-4)GlcNAc(b1-3)Gal(b1-4)GlcNAc(b1-3)Gal(b1-4)GlcNAc
# Summary of the method: as §1
# [43] = target: Neu5Ac(a2-6)Gal(b1-4)GlcNAc(b1-3)Gal(b1-4)GlcNAc(b1-3)Gal(b1-4)GlcNAc(b1-2)Man(a1-3)[Neu5Ac(a2-6)Gal(b1-4)GlcNAc(b1-3)Gal(b1-4)GlcNAc(b1-3)Gal(b1-4)GlcNAc(b1-2)Man(a1-6)]GalNAc
# Summary of the method: as §1
binder,measurement,setting,value
LngA (Escherichia coli) (protein) MLSVYNRTQKFKAEARKKIAKYHELRKQRGMSLLEVIIVLGIIGTIAAGVVILAQRAFDSRAVTDLVTNTNTVRVRMKDAYQRDGKYPDFVDPLSLTANTIKTDTSGIPAAQLVQLGKITPDEVRNNISGDFIAIGGALTSNGAQVKKGFAIELNGLSQEQCRSILGQVGNNWEYVAIGTSASGSYAMTATGVDMSVAASTTVLRSLGNNGQTTLTADKILSTCTAQVNSITLGSR,glycan array binding signal (z-score),[1],-0.344
same,glycan array binding signal (z-score),[2],-0.422
same,glycan array binding signal (z-score),[3],-0.439
same,glycan array binding signal (z-score),[4],-0.401
same,glycan array binding signal (z-score),[5],-0.589
same,glycan array binding signal (z-score),[6],0.287
same,glycan array binding signal (z-score),[7],-0.591
same,glycan array binding signal (z-score),[8],-0.503
same,glycan array binding signal (z-score),[9],-0.536
same,glycan array binding signal (z-score),[10],-0.43
same,glycan array binding signal (z-score),[11],-0.225
same,glycan array binding signal (z-score),[12],1.03
same,glycan array binding signal (z-score),[13],-0.346
same,glycan array binding signal (z-score),[14],-0.286
same,glycan array binding signal (z-score),[15],-0.54
same,glycan array binding signal (z-score),Neu5Ac(a2-3)GalNAc,-0.363
same,glycan array binding signal (z-score),[16],-0.567
same,glycan array binding signal (z-score),[17],-0.536
same,glycan array binding signal (z-score),[18],-0.565
same,glycan array binding signal (z-score),[19],-0.07
same,glycan array binding signal (z-score),[20],-0.367
same,glycan array binding signal (z-score),Neu5Ac(a2-6)Gal,-0.107
same,glycan array binding signal (z-score),[21],-0.533
same,glycan array binding signal (z-score),Neu5Ac(a2-6)Gal(b1-4)Glc,-0.2
same,glycan array binding signal (z-score),[22],-0.405
same,glycan array binding signal (z-score),[23],-0.028
same,glycan array binding signal (z-score),[24],-0.351
same,glycan array binding signal (z-score),[25],-0.321
same,glycan array binding signal (z-score),[26],-0.512
same,glycan array binding signal (z-score),[27],-0.423
same,glycan array binding signal (z-score),[28],-0.28
same,glycan array binding signal (z-score),[29],-0.481
same,glycan array binding signal (z-score),[30],-0.455
same,glycan array binding signal (z-score),[31],-0.387
same,glycan array binding signal (z-score),[32],-0.544
same,glycan array binding signal (z-score),[33],-0.041
same,glycan array binding signal (z-score),[34],-0.467
same,glycan array binding signal (z-score),[35],-0.567
same,glycan array binding signal (z-score),[36],-0.186
same,glycan array binding signal (z-score),[37],-0.379
same,glycan array binding signal (z-score),[38],-0.516
same,glycan array binding signal (z-score),[39],-0.476
same,glycan array binding signal (z-score),[40],-0.493
same,glycan array binding signal (z-score),[41],0.701
same,glycan array binding signal (z-score),[42],-0.502
same,glycan array binding signal (z-score),[43],2.43
